This is one part of the list. Repeats are few or missing, and single values can be far off.
These molecules were tested on G361 (assay: cell count relative to DMSO control; melanoma cells; higher = more viable cells). Conditions: library dose: standard library concentration; 72 h.
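Also: cells treated in 1,536-well plates, then fixed and DAPI-stained, with nuclei counted from automated high-throughput microscope images.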

Structure (SMILES)	cell count [%]
O=c1[nH]nc(Sc2ncc([N+](=O)[O-])s2)n1-c1ccc2c(c1)OCCO2 + Cn1nnc2c(C(N)=O)ncn2c1=O [temozolomide] (first compound 1 µM, partner dose 10 µM)	84.4
Cn1cncc1[C@@](N)(c1ccc(Cl)cc1)c1ccc2c(c1)c(-c1cccc(Cl)c1)cc(=O)n2C [tipifarnib] + O=C(O)C(=O)Nc1sc2c(c1C(=O)O)CCNC2 [TCS401] (first compound 0.05 µM, partner dose 8.33333 µM)	96.9
O=C(Nc1cccc(Cl)c1)Nc1ncc(CCNc2ncnc3ccsc23)s1 + CCc1ccc(CCOc2ccc(CC3SC(=O)NC3=O)cc2)nc1 [pioglitazone] (first compound 0.004 µM, partner dose 10 µM)	64.8
O=c1[nH]nc(Sc2ncc([N+](=O)[O-])s2)n1-c1ccc2c(c1)OCCO2 + O=C(O)c1ccc(-c2c[nH]c3ncc(-c4ccccc4)cc23)cc1C1CCCC1 [GSK650394] (first compound 1 µM, partner dose 0.8 µM)	85.7
O=c1[nH]nc(Sc2ncc([N+](=O)[O-])s2)n1-c1ccc2c(c1)OCCO2 + O=C(Nc1cccc(Cl)c1)Nc1ncc(CCNc2ncnc3ccsc23)s1 [SNS314] (first compound 1 µM, partner dose 0.004 µM)	64.4
COc1cc(Nc2ncc(F)c(Nc3ccc4c(n3)NC(=O)C(C)(C)O4)n2)cc(OC)c1OC [Tamatinib] + CCCCCCCCCCCC1=C(O)C(=O)C=C(O)C1=O [Embelin] (first compound 2 µM, partner dose 6 µM)	77.7
CC1(C)NC(=O)N(c2ccc([N+](=O)[O-])c(C(F)(F)F)c2)C1=O [nilutamide] + O=C1NC(=O)/C(=C/c2ccc(-c3ccc(F)cc3O)o2)S1 [AS252424] (first compound 5 µM, partner dose 5 µM)	92.5
Cn1cncc1[C@@](N)(c1ccc(Cl)cc1)c1ccc2c(c1)c(-c1cccc(Cl)c1)cc(=O)n2C [tipifarnib] + O=C(Nc1ccccc1)c1cc([N+](=O)[O-])ccc1Cl [GW9662] (first compound 0.05 µM, partner dose 10 µM)	62.4
O=c1[nH]nc(Sc2ncc([N+](=O)[O-])s2)n1-c1ccc2c(c1)OCCO2 + C[C@@H](N)c1ccc(C(=O)Nc2ccnc3[nH]ccc23)cc1 [RKI983] (first compound 1 µM, partner dose 2 µM)	93.8
O=C(O)c1ccc(-c2c[nH]c3ncc(-c4ccccc4)cc23)cc1C1CCCC1 + COc1cc(N2CCC(N3CCN(C)CC3)CC2)ccc1Nc1ncc(Cl)c(Nc2ccccc2S(=O)(=O)C(C)C)n1 [NVP-TAE684] (first compound 0.8 µM, partner dose 0.4 µM)	53.9
O=c1[nH]nc(Sc2ncc([N+](=O)[O-])s2)n1-c1ccc2c(c1)OCCO2 + COc1cc(Nc2ncc(F)c(Nc3ccc4c(n3)NC(=O)C(C)(C)O4)n2)cc(OC)c1OC [Tamatinib] (first compound 1 µM, partner dose 2 µM)	80
O=c1[nH]nc(Sc2ncc([N+](=O)[O-])s2)n1-c1ccc2c(c1)OCCO2 + COc1cc(N2CCC(N3CCN(C)CC3)CC2)ccc1Nc1ncc(Cl)c(Nc2ccccc2S(=O)(=O)C(C)C)n1 [NVP-TAE684] (first compound 1 µM, partner dose 0.4 µM)	98.7
COc1cc(Nc2ncc(F)c(Nc3ccc4c(n3)NC(=O)C(C)(C)O4)n2)cc(OC)c1OC [Tamatinib] + CC1(C)NC(=O)N(c2ccc([N+](=O)[O-])c(C(F)(F)F)c2)C1=O [nilutamide] (first compound 2 µM, partner dose 5 µM)	76.2
O=C(O)c1ccc(-c2c[nH]c3ncc(-c4ccccc4)cc23)cc1C1CCCC1 + COc1ccc2c(c1)CCC1C2CCC2(C)C(NCCCCCCN3C(=O)C=CC3=O)CCC12 [U73122] (first compound 0.8 µM, partner dose 2 µM)	50
O=c1[nH]nc(Sc2ncc([N+](=O)[O-])s2)n1-c1ccc2c(c1)OCCO2 + CO[C@@H]1[C@H](N(C)C(=O)c2ccccc2)C[C@H]2O[C@]1(C)n1c3ccccc3c3c4c(c5c6ccccc6n2c5c31)C(=O)NC4 [Midostaurin] (first compound 1 µM, partner dose 0.4 µM)	55.5
Cn1cncc1[C@@](N)(c1ccc(Cl)cc1)c1ccc2c(c1)c(-c1cccc(Cl)c1)cc(=O)n2C [tipifarnib] + NCC(=O)Nc1ccc(-n2nc(C(F)(F)F)cc2-c2ccc3c(ccc4ccccc43)c2)cc1 [OSU03012] (first compound 0.05 µM, partner dose 5 µM)	79

Structure (SMILES)	cell count [%]
C[C@@H]1CCN(C(=O)CC#N)C[C@@H]1N(C)c1ncnc2[nH]ccc12 + Cc1cc([N+](=O)[O-])ccc1NS(=O)(=O)c1cc(Cl)ccc1Cl [FH535] (first compound 5 µM, partner dose 5 µM)	35.2
CC1(C)NC(=O)N(c2ccc([N+](=O)[O-])c(C(F)(F)F)c2)C1=O [nilutamide] + N#Cc1c(O)c2c(-c3ccc(-c4ccccc4O)cc3)csc2[nH]c1=O [A769662] (first compound 5 µM, partner dose 10 µM)	94
O=c1[nH]nc(Sc2ncc([N+](=O)[O-])s2)n1-c1ccc2c(c1)OCCO2 + Cc1ccc(Nc2nccc(N(C)c3ccc4c(C)n(C)nc4c3)n2)cc1S(N)(=O)=O [Pazopanib] (first compound 1 µM, partner dose 2 µM)	97.9
O=C(Nc1cccc(Cl)c1)Nc1ncc(CCNc2ncnc3ccsc23)s1 + Oc1cc(-c2nc(-c3ccccc3)[nH]c2-c2ccncc2)ccc1Cl [L779450] (first compound 0.004 µM, partner dose 1 µM)	54.9
COc1cc(Nc2ncc(F)c(Nc3ccc4c(n3)NC(=O)C(C)(C)O4)n2)cc(OC)c1OC [Tamatinib] + CCN(CC)CCCCNc1ncc2cc(-c3cc(OC)cc(OC)c3)c(NC(=O)NC(C)(C)C)nc2n1 [PD173074] (first compound 2 µM, partner dose 0.5 µM)	74.7
O=c1[nH]nc(Sc2ncc([N+](=O)[O-])s2)n1-c1ccc2c(c1)OCCO2 + Nc1ncn([C@H]2C[C@H](O)[C@@H](CO)O2)c(=O)n1 [decitabine] (first compound 1 µM, partner dose 0.5 µM)	73.1
O=c1[nH]nc(Sc2ncc([N+](=O)[O-])s2)n1-c1ccc2c(c1)OCCO2 + C[C@]1(O)C[C@@H](c2nc(-c3ccc4ccc(-c5ccccc5)nc4c3)c3c(N)nccn32)C1 [OSI906] (first compound 1 µM, partner dose 2 µM)	96.1
O=c1[nH]nc(Sc2ncc([N+](=O)[O-])s2)n1-c1ccc2c(c1)OCCO2 + CCCCCCCCc1ccc(CCC(N)(CO)CO)cc1 [fingolimod] (first compound 1 µM, partner dose 10 µM)	0.648
O=c1[nH]nc(Sc2ncc([N+](=O)[O-])s2)n1-c1ccc2c(c1)OCCO2 + COc1ccc(-c2ccc3c(N4CCOCC4)nc(N4C[C@@H](C)O[C@@H](C)C4)nc3n2)cc1CO [KU0063794] (first compound 1 µM, partner dose 0.1 µM)	86.2
COc1cc(Nc2ncc(F)c(Nc3ccc4c(n3)NC(=O)C(C)(C)O4)n2)cc(OC)c1OC [Tamatinib] + c1cc(-c2cnn3cc(-c4ccc(OCCN5CCCCC5)cc4)cnc23)ccn1 [Dorsomorphin] (first compound 2 µM, partner dose 2 µM)	37.7
O=C(Nc1cccc(Cl)c1)Nc1ncc(CCNc2ncnc3ccsc23)s1 + O=C1NC(=O)/C(=C/c2ccc(-c3ccc(F)cc3O)o2)S1 [AS252424] (first compound 0.004 µM, partner dose 5 µM)	58.8
CC1(C)NC(=O)N(c2ccc([N+](=O)[O-])c(C(F)(F)F)c2)C1=O [nilutamide] + Oc1cc(-c2nc(-c3ccccc3)[nH]c2-c2ccncc2)ccc1Cl [L779450] (first compound 5 µM, partner dose 1 µM)	52.5
O=C(O)c1ccc(-c2c[nH]c3ncc(-c4ccccc4)cc23)cc1C1CCCC1 + O=C1NC(=O)/C(=C/c2ccc(-c3ccc(F)cc3O)o2)S1 [AS252424] (first compound 0.8 µM, partner dose 5 µM)	50.5
O=C(Nc1cccc(Cl)c1)Nc1ncc(CCNc2ncnc3ccsc23)s1 + CN(C)S(=O)(=O)c1ccc2c(c1)/C(=C/c1cc3c([nH]1)CCCC3)C(=O)N2 [SU6656] (first compound 0.004 µM, partner dose 2 µM)	47
O=c1[nH]nc(Sc2ncc([N+](=O)[O-])s2)n1-c1ccc2c(c1)OCCO2 + O=C(/C=C/c1cccnc1)NCCCCC1CCN(C(=O)c2ccccc2)CC1 [FK866] (first compound 1 µM, partner dose 0.05 µM)	3.24
O=C(O)c1ccc(-c2c[nH]c3ncc(-c4ccccc4)cc23)cc1C1CCCC1 + CC(C)CCN1c2nc(Nc3cc(F)c(O)c(F)c3)ncc2N(C)C(=O)C1C [BID1870] (first compound 0.8 µM, partner dose 1 µM)	40.6

— the supplement of paper PMC4604168 (melanoma cell lines)
